Data as given in the supplement of paper PMC7826260.
The other results are listed elsewhere or left out. Viral Rep nickase domains cut single-stranded DNA in vitro (3 µM enzyme, 1 h, 37 °C); shown is the middle of each 90-letter strand. Values are log2 of uncut reads against the no-enzyme pool; more negative means more cut, near 0 not cut, and no call is made. The scaling is to total reads; where an enzyme cuts many sequences, the uncut ones exceed 0.

Tests used:
Assay in all cases: uncleaved DNA left, log2 of reads against the no-enzyme library (log2 ratio); higher = less cleavage (more negative = more Rep cleavage of the k-mer); sequences stand for … in CTCGTCCG…ACCGGAGA
[1] = tested on: T1, Rep nickase domain of Muscovy duck circovirus
T1 sequence (residues 1-111, tag not shown): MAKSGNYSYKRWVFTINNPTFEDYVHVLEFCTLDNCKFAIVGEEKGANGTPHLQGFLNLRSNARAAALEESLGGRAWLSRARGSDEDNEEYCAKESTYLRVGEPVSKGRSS
Description: (§1)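 A pool of 90-nt single-stranded DNAs with seven random bases just before the constant AC of the nick site (name = the seven bases) was cut by 3 µM recombinant His6-SUMO-tagged Rep nickase domain (300 nM DNA, 50 mM HEPES pH 8.0, 50 mM NaCl, 1 mM MnCl2, 1 h, 37 °C, three replicates). Uncut DNA was amplified and sequenced.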

[2] = tested on: T2, Rep nickase domain of banana bunchy top virus
T2 sequence (residues 1-94, tag not shown): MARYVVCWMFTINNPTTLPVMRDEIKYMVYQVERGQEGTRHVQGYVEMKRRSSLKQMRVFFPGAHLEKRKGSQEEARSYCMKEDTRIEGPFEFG
Description: as §1

[3] = tested on: T3, Rep nickase domain of cabbage leaf curl virus
T3 sequence (residues 1-116, tag not shown): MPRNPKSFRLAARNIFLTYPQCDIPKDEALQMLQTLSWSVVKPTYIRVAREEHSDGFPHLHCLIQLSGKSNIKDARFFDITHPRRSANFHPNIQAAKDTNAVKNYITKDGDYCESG
Description: as §1

[4] = tested on: T4, Rep nickase domain of chickpea chlorotic dwarf virus
T4 sequence (residues 1-124, tag not shown): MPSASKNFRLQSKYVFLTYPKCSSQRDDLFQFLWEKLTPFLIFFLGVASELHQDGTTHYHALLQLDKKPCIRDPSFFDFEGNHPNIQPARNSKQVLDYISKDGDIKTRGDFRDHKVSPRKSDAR
Description: as §1

[5] = tested on: T5, Rep nickase domain of faba bean necrotic yellows virus
T5 sequence (residues 1-98, tag not shown): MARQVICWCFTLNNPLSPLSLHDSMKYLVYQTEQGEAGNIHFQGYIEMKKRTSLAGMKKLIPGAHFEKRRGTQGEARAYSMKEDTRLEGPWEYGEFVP
Description: as §1

[6] = tested on: T6, Rep nickase domain of maize striate mosaic virus
T6 sequence (residues 1-117, tag not shown): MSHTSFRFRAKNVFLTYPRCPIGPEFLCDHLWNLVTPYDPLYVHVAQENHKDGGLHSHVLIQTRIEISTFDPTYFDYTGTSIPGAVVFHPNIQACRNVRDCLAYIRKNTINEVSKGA
Description: as §1

[7] = tested on: T7, Rep nickase domain of porcine circovirus 2
T7 sequence (residues 2-116, tag not shown): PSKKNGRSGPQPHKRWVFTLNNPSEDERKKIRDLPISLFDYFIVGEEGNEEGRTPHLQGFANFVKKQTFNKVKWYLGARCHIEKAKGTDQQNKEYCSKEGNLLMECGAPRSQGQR
Description: as §1

[8] = tested on: T8, Rep nickase domain of tomato yellow leaf curl virus
T8 sequence (residues 1-136, tag not shown): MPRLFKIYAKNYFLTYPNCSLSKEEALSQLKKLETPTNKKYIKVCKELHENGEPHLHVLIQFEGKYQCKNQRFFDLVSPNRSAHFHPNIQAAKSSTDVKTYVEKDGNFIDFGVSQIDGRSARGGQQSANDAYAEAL
Description: as §1

[9] = tested on: T9, Rep nickase domain of wheat dwarf virus
T9 sequence (residues 1-137, tag not shown): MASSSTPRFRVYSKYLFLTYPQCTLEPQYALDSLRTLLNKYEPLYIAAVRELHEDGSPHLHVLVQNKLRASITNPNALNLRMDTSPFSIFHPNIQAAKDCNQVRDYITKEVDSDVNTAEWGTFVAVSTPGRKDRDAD
Description: as §1

Row | Sequence | uncleaved DNA left (log2) [1] | uncleaved DNA left (log2) [2] | uncleaved DNA left (log2) [3] | uncleaved DNA left (log2) [4] | uncleaved DNA left (log2) [5] | uncleaved DNA left (log2) [6] | uncleaved DNA left (log2) [7] | uncleaved DNA left (log2) [8] | uncleaved DNA left (log2) [9]
1 | TATGATT | -0.464 | -0.736 | -3.01 | -2.81 | 0.107 | -0.168 | -2.16 | 0.144 | -0.551
2 | GATGAGC | -0.0561 | -0.135 | -0.233 | 0.248 | -0.0412 | -0.562 | 0.0422 | -0.122 | -0.0327
3 | TCCACAG | -0.084 | 0.022 | -0.566 | -0.909 | 0.0339 | -0.992 | 0.123 | -0.0458 | -0.0127
4 | TGTATCA | 0.0179 | 0.149 | 0.505 | 0.62 | 0.0364 | 1.29 | 0.0347 | 0.179 | 0.203
5 | GAACAGA | 0.119 | 0.15 | 0.67 | 1.41 | -0.0702 | 1.68 | 0.231 | 0.103 | 0.203
6 | ACACTAT | -0.0288 | 0.0471 | -0.141 | -1.41 | -0.000309 | -0.862 | -0.0202 | -0.0742 | -0.0434
7 | CCGTAAA | 0.117 | -0.0324 | -0.00298 | -0.153 | -0.00655 | -0.436 | -0.202 | -0.0604 | 0.0609
8 | TGCAACA | 0.00906 | -0.0427 | 0.255 | -0.525 | 0.0243 | 0.835 | -0.141 | -0.0275 | 0.035
9 | TTGCAAT | 0.0605 | 0.155 | -0.391 | -0.582 | 0.128 | -0.942 | 0.00593 | 0.13 | 0.0349
10 | CTTGAAT | -0.0541 | -0.0189 | -0.0133 | -0.42 | 0.0926 | -0.425 | -1.74 | 0.126 | 0.0647
11 | GGCCCTC | -0.0168 | -0.0295 | 0.398 | 1.19 | -0.0725 | 1.57 | 0.0476 | 0.0277 | 0.0336
12 | TCGATAA | -0.00606 | 0.0147 | -0.0797 | -0.168 | -0.00831 | -0.435 | 0.0219 | -0.0269 | 0.135
13 | CTTGAGT | 0.0755 | 0.00826 | -0.559 | -0.828 | -0.00604 | -1.02 | -0.349 | 0.0275 | -0.0815
14 | TCTAGGC | 0.142 | -0.0299 | 0.415 | 0.809 | 0.0366 | 0.518 | 0.123 | 0.0594 | 0.128
15 | CTCCTTC | -0.0424 | -0.116 | 0.0113 | -0.322 | -0.123 | -0.856 | -0.0451 | -0.118 | 0.018
